Results: US5116858A, “4-imidazoline derivatives” (Mitsubishi Kasei Corporation, priority 1989, dated 1992)
At least one read-out could not be matched to a standard name with certainty.

Experiment: Radical scavenger potency for stable radical DPPH
Assay type: biochemical
Conditions: 100 μM DPPH, test compound 100 μM in ethanol, 516.8 nm, 120 minutes; active control Vitamin C 50 μM

SMILES	Potency as radical scavenger for DPPH [%]
CCCCCCc1ccc(-c2c(C)[nH]c(=O)n2C)cc1 [Compound No. 1, 1,4-Dimethyl-5-(4'-n-hexylphenyl)-4-imidazolin-2-one]	86.7
CCCCc1ccc(-c2c(C)[nH]c(=O)n2C)cc1 [Compound No. 2, 5-(4'-n-Butylphenyl)-1,4-dimethyl-4-imidazolin-2-one]	98.0
CCCCCCCCCCOc1ccc(-c2c(C)[nH]c(=O)n2C2CCCCC2)cc1 [Compound No. 122, 1-cyclohexyl-5-(4'-decyloxyphenyl)-4-methyl-4-imidazolin-2-one]	88.5
CCCCc1ccc(-c2c(C)[nH]c(=O)n2Cc2ccccc2)cc1 [Compound No. 137, 1-Benzyl-5-(4'-n-butylphenyl)-4-methyl-4-imidazolin-2-one]	59.1
Cc1[nH]c(=O)n(C)c1-c1ccc(C2CCCCC2)cc1 [compound 8]	99.9
Cc1[nH]c(=O)n(C)c1-c1ccc(-c2ccccc2)cc1 [compound 16]	80.6
CCCCCCCCCCOc1ccc(-c2c(C)[nH]c(=O)n2C)cc1 [compound 25]	95.9
CCCCCCCCCCCCOc1ccc(-c2c(C)[nH]c(=O)n2C)cc1 [compound 26]	95.9
CCCCc1ccc(-c2c(C)[nH]c(=O)n2C(C)C)cc1 [compound 78]	78.3
CCCCOc1ccc(-c2c(C)[nH]c(=O)n2C2CCCCC2)cc1 [compound 111]	87.5
